Data on 86 molecules can be found in publication PMC4336329 (PLoS ONE, 2015).

In all, about 310,000 compounds went through this assay and about 14,000 (4.5%) showed an effect of 50% or more. The effect is printed as a negative number. Some of the results follow. Where a SMILES comes first, the peptide text is derived from it. The star is where a group is joined. OPac = O=C(CO*)c1ccccc1; Bz = O=C(c1ccccc1)*
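Further: peak tail current of the secondary pulse compared with the same well before compound.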

The test deals with human ether-à-go-go-related gene (hERG) potassium channel (human, UniProt Q12809). As to the kind of experiment: primary screen, population patch clamp on CHO cells stably expressing hERG.
Chain of human ether-à-go-go-related gene (hERG) potassium channel (Q12809 whole entry, looked up): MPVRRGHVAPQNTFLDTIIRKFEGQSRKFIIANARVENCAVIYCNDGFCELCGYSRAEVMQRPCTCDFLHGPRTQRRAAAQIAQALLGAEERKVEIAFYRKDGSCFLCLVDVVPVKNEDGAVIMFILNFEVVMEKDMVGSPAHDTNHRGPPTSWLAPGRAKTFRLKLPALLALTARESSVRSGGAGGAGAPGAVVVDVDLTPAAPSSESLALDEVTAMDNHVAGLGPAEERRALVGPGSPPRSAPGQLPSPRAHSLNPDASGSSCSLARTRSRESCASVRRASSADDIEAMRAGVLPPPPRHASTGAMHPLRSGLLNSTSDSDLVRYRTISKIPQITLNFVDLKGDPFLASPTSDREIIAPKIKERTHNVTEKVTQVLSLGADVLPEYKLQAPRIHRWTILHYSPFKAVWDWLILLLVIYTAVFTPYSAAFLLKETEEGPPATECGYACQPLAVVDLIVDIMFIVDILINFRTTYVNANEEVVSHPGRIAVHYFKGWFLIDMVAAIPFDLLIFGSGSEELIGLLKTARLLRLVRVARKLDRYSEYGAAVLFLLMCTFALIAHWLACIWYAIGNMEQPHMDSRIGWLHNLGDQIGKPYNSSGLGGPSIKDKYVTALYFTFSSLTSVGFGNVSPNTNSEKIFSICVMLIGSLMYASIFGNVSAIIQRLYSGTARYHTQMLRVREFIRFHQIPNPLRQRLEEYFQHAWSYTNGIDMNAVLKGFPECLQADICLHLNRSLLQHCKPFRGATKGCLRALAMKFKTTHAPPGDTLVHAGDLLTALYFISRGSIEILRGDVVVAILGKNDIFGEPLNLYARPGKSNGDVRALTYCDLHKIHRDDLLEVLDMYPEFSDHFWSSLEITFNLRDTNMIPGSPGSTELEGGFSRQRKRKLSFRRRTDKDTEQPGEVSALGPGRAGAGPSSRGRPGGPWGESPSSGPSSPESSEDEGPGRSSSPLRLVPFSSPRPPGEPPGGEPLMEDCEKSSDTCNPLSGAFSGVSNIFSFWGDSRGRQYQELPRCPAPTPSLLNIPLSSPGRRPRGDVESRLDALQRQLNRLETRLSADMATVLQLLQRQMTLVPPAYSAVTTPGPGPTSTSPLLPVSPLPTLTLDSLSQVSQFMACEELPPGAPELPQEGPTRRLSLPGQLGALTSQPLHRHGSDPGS
In the case of `O=C(CNC(=O)c1ccc(Cl)cc1)OC1CCOC1=O` (centres unmarked), the “hERG current change (%, negative = inhibition) at 10uM” value is given as 2.78%.
In the case of `COc1ccc2[nH]c(=O)c(CNc3cccc(C)c3)cc2c1`, the “hERG current change (%, negative = inhibition) at 10uM” value was -11.9%.
Consider `COc1ccc(-n2cnc(N)c2C(=O)c2cccc([N+](=O)[O-])c2)cc1`, for which the “hERG current change (%, negative = inhibition) at 10uM” value is reported as -25.4%.
With `COc1cc2c(cc1NC(=O)CSc1nnc(Cc3cccs3)n1C)oc1ccccc12`, the “hERG current change (%, negative = inhibition) at 10uM” value was found to be 11.5%.
As for `Cc1ccc(C(=O)C2OC(=O)C(C)(C)C(=O)C2(C)C)cc1` (centres unmarked), the “hERG current change (%, negative = inhibition) at 10uM” value is given as -9.46%.
With `Cc1ccc(S(=O)(=O)CC(C)N2CCN(C3CCCCC3)CC2)cc1` (centres unmarked), the “hERG current change (%, negative = inhibition) at 10uM” value was -40.1%.
Under `O=C(CN1CCCCCC1)NCCc1ccc(F)cc1.O=C(O)C(=O)O` stands -19.7%.
As for `O=C1NC(c2ccccc2)Oc2ccccc21` (centres unmarked), the “hERG current change (%, negative = inhibition) at 10uM” value came out at 13.9%.
For the molecule `C/C(=N\Nc1nc(-c2ccc(C)cc2C)cs1)c1cc2ccccc2oc1=O`, the “hERG current change (%, negative = inhibition) at 10uM” value came to 7.78%.
The figure for `O=C(O)c1cccc(NC(=O)c2ccccc2NC(=O)c2ccccc2F)c1` is 13.6%; for `CC1=CC(c2ccc(Cl)cc2)n2nc(NS(=O)(=O)c3ccc(C)cc3)nc2N1` (centres unmarked) it is -19.7%; for `O=C(CNC(=O)c1ccccc1)NCC(=O)OCC(=O)c1ccccc1` (Bz-Gly-Gly-OPac) it is 14.7%.
Under `CSCCC(Nc1ccc(S(=O)(=O)N2CCOCC2)cc1[N+](=O)[O-])C(=O)OCC(=O)NCC(C)C` (centres unmarked) stands -9.7%.
For the molecule `CC(=O)c1c(C)[nH]c(C(=O)Nc2c(C)n(C)n(-c3ccccc3)c2=O)c1C`, the “hERG current change (%, negative = inhibition) at 10uM” value was determined as 14.7%.
For the molecule `CC1=CC2=NC(=O)CC(C)(C(=O)N(CC(=O)NC3CCCC3)Cc3ccc(Cl)cc3)N2C=C1` (centres unmarked), the “hERG current change (%, negative = inhibition) at 10uM” value turned out to be 13.1%.
The figure for `CC(C)(C)S(=O)(=O)c1cnc(-c2ccc(Cl)cc2)nc1N` is 16.1%; for `CCC(C)(C)N1CC(=O)N(Cc2ccccc2)C(c2ccc(OC)cc2)C1=O` (centres unmarked) it is -26.4%.
In the case of `CN1CC(=O)Nc2ccc([N+](=O)[O-])cc2C1=O`, the “hERG current change (%, negative = inhibition) at 10uM” value is listed as 24.7%.
Consider `CCOc1ccccc1N(CC(=O)NC1CCCCC1)S(=O)(=O)c1ccccc1`, for which the “hERG current change (%, negative = inhibition) at 10uM” value was -27%.
For `CN(Cc1ccc(C(C)(C)C)cc1)C(=O)Cc1ccc(S(=O)(=O)N2CCOCC2)s1`, the “hERG current change (%, negative = inhibition) at 10uM” value is -13.8%.
Consider `Cc1cc(C(=O)OCC(=O)N2CCc3ccccc32)ccc1[N+](=O)[O-]`, for which the “hERG current change (%, negative = inhibition) at 10uM” value is recorded as 2.88%.
Regarding `COc1ccc(-n2ccnc2SCC(=O)NC2CCCC2)cc1`, the “hERG current change (%, negative = inhibition) at 10uM” value was -6.12%.
As to `Cc1cc2cc(CN(Cc3ccco3)C(=S)NCC3CCCO3)c(=O)[nH]c2cc1C` (centres unmarked), the “hERG current change (%, negative = inhibition) at 10uM” value is -3.49%.
Turning to `Cc1ncc(S(=O)(=O)c2ccccc2)c(-c2ccc(Cl)cc2Cl)n1`, the “hERG current change (%, negative = inhibition) at 10uM” value is recorded as -4.95%.
Under `COc1cc([N+](=O)[O-])cc2cc(C(=O)N3CCCC3)c(=O)oc12` stands 9.56%; under `OCC1(CCOc2ccccc2)CCN(C2Cc3ccccc3C2)CC1`, -72.8%; under `CCCCCn1c(=N)n(CC(O)COc2ccccc2OC)c2ccccc21` (centres unmarked), -75.9%.
Turning to `COc1ccccc1C(=O)NCC(=O)N1CCN(S(=O)(=O)c2ccc3c(c2)OCCO3)CC1`, the “hERG current change (%, negative = inhibition) at 10uM” value was found to be 11.7%.
For `CS(=O)(=O)N(CC(=O)N1CCN(c2ccccc2)CC1)Cc1ccc(Cl)cc1`, the “hERG current change (%, negative = inhibition) at 10uM” value is given as -28.6%.
The figure for `O=C(CSc1nnc(-c2ccccc2Cl)o1)N1CCCCC1` is -8.83%.
Take `O=C(O)C1=CC[C@@H](c2ccc(Cl)cc2)N(S(=O)(=O)c2ccc(Cl)cc2)[C@H]1c1cccc(Cl)c1`: the “hERG current change (%, negative = inhibition) at 10uM” value amounted to 25.9%.
Consider `Cl.c1ccc(SCCN2CCN(c3ccccc3)CC2)cc1`, for which the “hERG current change (%, negative = inhibition) at 10uM” value is -10.9%.
As for `COc1cccc(C(Nc2ccccn2)c2c(NC(=O)c3ccco3)sc(C)c2C)c1` (centres unmarked), the “hERG current change (%, negative = inhibition) at 10uM” value was 10.8%.
For the molecule `Cc1ccc(S(=O)(=O)N2CCN(C(=O)C3CCCC3)CC2)cc1C`, the “hERG current change (%, negative = inhibition) at 10uM” value worked out at 13.6%.
As for `CC(C)(C)c1ccc(N2C(=O)Cc3c2nc(N)c(C#N)c3N)cc1`, the “hERG current change (%, negative = inhibition) at 10uM” value is given as -8.89%.
The figure for `COc1ccc(S(=O)(=O)N(CCc2ccccc2)CC(=O)O)cc1Cl` is -8.05%; for `COCCn1c(C)cc(/C=C(\C#N)C(=O)OC(C)C(=O)Nc2ccc(NC(C)=O)cc2)c1C` (centres unmarked) it is 12.1%; for `O=C(c1cc2ccccc2o1)N1CCN(C/C=C/c2ccccc2)CC1` it is -62.2%.
In the case of `C=CCn1c(SCc2nc3ccccc3nc2C)nnc1-c1ccoc1C`, the “hERG current change (%, negative = inhibition) at 10uM” value is reported as -13.3%.
Under `CCc1ccccc1NC(=O)CCc1c(C)nn(-c2ccc(N3CCOCC3)nn2)c1C` stands -1.33%.
Regarding `Cc1cnc(NC(=O)Cn2cnc3c2c(=O)n(C)c(=O)n3C)s1`, the “hERG current change (%, negative = inhibition) at 10uM” value is reported as 0.958%.
For the molecule `COCCNC(=O)C(=O)NCCN1CCNCC1.O`, the “hERG current change (%, negative = inhibition) at 10uM” value is listed as 22.8%.
As for `O=C(O)C(=O)O.O=C(c1cccs1)N1CCN(C2CCCCC2)CC1`, the “hERG current change (%, negative = inhibition) at 10uM” value is given as -32.4%.
In the case of `CCOC(=O)Cn1c(=O)c2c(nc3n2CCN3Cc2ccccc2)n(C)c1=O`, the “hERG current change (%, negative = inhibition) at 10uM” value is -22.2%.
As to `CC(=O)OC(Cn1nc(C)cc1C)c1ccccc1` (centres unmarked), the “hERG current change (%, negative = inhibition) at 10uM” value is recorded as 5.36%.
As to `COc1ccc(OC)c(NC(=O)NC2(C(F)(F)F)Oc3ccccc3O2)c1`, the “hERG current change (%, negative = inhibition) at 10uM” value was -2.33%.
Under `CC(=O)NS(=O)(=O)c1ccc(NC(=O)c2cc(-c3ccc(C)c(C)c3)nc3ccccc23)cc1` stands 12.3%; under `COc1cc(N2CCCC2)c(OC)cc1/C=C(/C#N)c1cccc(F)c1`, 9.14%.
For `Cc1nc(-c2nnc(SCC(=O)Nc3cc(Cl)cc(Cl)c3)n2C)cs1`, the “hERG current change (%, negative = inhibition) at 10uM” value was 5.49%.
With `CC(C)N1CCN(Cc2ccoc2)CC1CCO` (centres unmarked), the “hERG current change (%, negative = inhibition) at 10uM” value was found to be 12.2%.
For `C[n+]1cccc2ccc3c(c21)OC(N)=C(C#N)C3c1ccccc1.[I-]` (centres unmarked), the “hERG current change (%, negative = inhibition) at 10uM” value is recorded as -20.2%.
Under `Cc1nc(-c2ccc(S(=O)(=O)Nc3cc(F)ccc3F)cc2)co1` stands -14.1%.
Under `CCCCC(OC(=O)CN1C(=O)COc2ccccc21)C(=O)NC1CCCCC1` (centres unmarked) stands -30.8%.
As to `COc1cc(/C=N/NC(=O)c2ccc(CSc3nc4ccccc4[nH]3)cc2)ccc1O`, the “hERG current change (%, negative = inhibition) at 10uM” value is listed as 11%.
As for `COC(=O)c1cc(S(=O)(=O)N2CCN(Cc3ccccc3)CC2)c[nH]1`, the “hERG current change (%, negative = inhibition) at 10uM” value was 8.38%.
With `O=C(Nc1ccccc1)C1Cc2ccccc2CN1C(=O)c1ccco1` (centres unmarked), the “hERG current change (%, negative = inhibition) at 10uM” value is 6.64%.
For the molecule `COc1cc(NC(=O)c2ccc3c(c2)OCCO3)ccc1NC(=O)c1ccccc1Cl`, the “hERG current change (%, negative = inhibition) at 10uM” value is 8.88%.
Regarding `O=C(Nc1ccccc1Cl)C1CCCN(c2ncnc3c2nc2n3CCCCC2)C1` (centres unmarked), the “hERG current change (%, negative = inhibition) at 10uM” value is given as -59.4%.
For the molecule `CCOc1ccc(S(=O)(=O)N2CCC(C(=O)NCc3ccco3)CC2)cc1C`, the “hERG current change (%, negative = inhibition) at 10uM” value is given as 4.16%.
As for `O=C(NC(=S)NCc1ccc(-c2nc3ccccc3s2)cc1)c1ccco1`, the “hERG current change (%, negative = inhibition) at 10uM” value was found to be 34%.
With `COc1cccc(-c2nc(-c3ccccn3)no2)c1`, the “hERG current change (%, negative = inhibition) at 10uM” value is 2.54%.
Consider `O=C(O)/C=C\c1ccccc1Oc1ccc(F)cc1`, for which the “hERG current change (%, negative = inhibition) at 10uM” value worked out at 13.3%.
As to `Cc1ccc(-n2nnc3ccccc3c2=O)cc1C`, the “hERG current change (%, negative = inhibition) at 10uM” value was -2.63%.
Consider `Cc1ccccc1C(=O)N1CCC(C(=O)Nc2sccc2C(N)=O)CC1`, for which the “hERG current change (%, negative = inhibition) at 10uM” value is -23.5%.
For `CCc1cc2c3c(c(=O)oc2cc1OC)CCCC3`, the “hERG current change (%, negative = inhibition) at 10uM” value is 6.26%.
Under `COc1cccc(/C=C2/Sc3ccc(C(=O)NCCN4CCCC4)cc3NC2=O)c1` stands -39.1%; under `CCc1ccc(C(=O)NNC(=O)CC2OC(=O)c3ccccc32)cc1` (centres unmarked), -48.3%.
For `CCN(CC(=O)NCc1ccc(F)cc1)C(=O)c1oc2ccccc2c1C`, the “hERG current change (%, negative = inhibition) at 10uM” value is listed as -43.9%.
In the case of `CCOC(=O)c1c[nH]c2c3c(ccc2c1=O)CCCC3`, the “hERG current change (%, negative = inhibition) at 10uM” value is listed as -7.96%.
The figure for `COC(=O)[C@@H](NC(=O)c1ccc2c(c1)S(=O)(=O)c1ccccc1C2=O)C(C)C` is 8.57%; for `Cc1ccc(-n2c(C)c(C)c3c(NCCCO)ncnc32)cc1` it is -9.69%.
The figure for `Cc1ccc2[nH]c(=O)c(CN(CCc3ccccc3)Cc3nnnn3CC3CCCO3)cc2c1` (centres unmarked) is -16%.
`CCN(CC(=O)NC(C)C)C(=O)c1ccc(Cl)cc1`: the “hERG current change (%, negative = inhibition) at 10uM” value is on record as 2.39%.
The figure for `COCc1ccc(CN2CCCCC2C(=O)Nc2ccc(Oc3ccccc3)nc2)o1` (centres unmarked) is -0.373%; for `O=C(Nc1nnc(-c2ccccc2)s1)c1ccccc1F` it is 13.5%; for `CC(C)c1ccc(NC(=O)COc2ccc(S(=O)(=O)N3CCOCC3)cc2)cc1` it is -1.05%.
Consider `Cc1ccc(C)c(OCC(=O)NCC(c2ccco2)N2CCCCC2)c1` (centres unmarked), for which the “hERG current change (%, negative = inhibition) at 10uM” value is -2.72%.
Take `N#Cc1nc(-c2ccccc2)oc1NCc1ccco1`: the “hERG current change (%, negative = inhibition) at 10uM” value was 8.64%.
As to `CCCCCc1cc(=O)oc2c(C(CCN(CC)CC)c3ccc(OC)cc3)c(OC)cc(OC)c12` (centres unmarked), the “hERG current change (%, negative = inhibition) at 10uM” value is given as -55.2%.
Turning to `Cc1ccc(/C=C/C(=O)Oc2ccc(C#N)cc2)o1`, the “hERG current change (%, negative = inhibition) at 10uM” value is reported as 17.5%.
Take `CC1=Nc2cc(C(=O)N3CCCCC3)ccc2Sc2ccc(C)cc21`: the “hERG current change (%, negative = inhibition) at 10uM” value was -17.8%.
The figure for `CCc1cc(=O)oc2c(CN3CCN(C)CC3)c(O)ccc12` is 8.25%.
As for `COc1ccc(S(=O)(=O)N2CCCCC2)cc1NC(=O)c1ccc(Cl)nc1`, the “hERG current change (%, negative = inhibition) at 10uM” value is -19.1%.
For `O=C(O)CN1C(=O)/C(=C\c2cc(Br)ccc2OCc2ccc(Cl)cc2)SC1=S`, the “hERG current change (%, negative = inhibition) at 10uM” value was 15.2%.
As to `Cc1ccc(/C=C2\SC(N)=NC2=O)s1`, the “hERG current change (%, negative = inhibition) at 10uM” value was 11.2%.
Take `Cc1cc(C)cc(N2C(=O)C3NN=C(C(=O)OCc4ccccc4)C3C2=O)c1` (centres unmarked): the “hERG current change (%, negative = inhibition) at 10uM” value is recorded as -28.1%.
